# From the supplement of paper PMC8728848
# The other results are listed elsewhere or left out.
# Legend:
# Experiment in all cases: glycan array binding signal (z-score within array); higher = stronger binding
# Details in all cases: glycan notation: IUPAC condensed, linker removed
# [1] = target: GlcNAc(b1-3)Man
# Outline: (§1)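 The binding signal is a Z-score computed within each array and averaged over linkers. Arrays of the same protein sequence at different concentrations or buffers were also averaged together. Data originate from 3228 arrays in the Consortium for Functional Glycomics database, kept only where the protein sequence was available.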
# [2] = target: GlcNAc(b1-3)[GlcNAc(b1-4)][GlcNAc(b1-6)]GlcNAc
# Outline: as §1
# [3] = target: GlcNAc(b1-3)[GlcNAc(b1-6)]Gal(b1-4)GlcNAc
# Outline: as §1
# [4] = target: GlcNAc(b1-3)[GlcNAc(b1-6)]GalNAc
# Outline: as §1
# [5] = target: GlcNAc(b1-4)Gal(b1-4)GlcNAc
# Outline: as §1
# [6] = target: GlcNAc(b1-4)GlcNAc
# Outline: as §1
# [7] = target: GlcNAc(b1-4)GlcNAc(b1-4)GlcNAc
# Outline: as §1
# [8] = target: GlcNAc(b1-4)GlcNAc(b1-4)GlcNAc(b1-4)GlcNAc(b1-4)GlcNAc
# Outline: as §1
# [9] = target: GlcNAc(b1-4)GlcNAc(b1-4)GlcNAc(b1-4)GlcNAc(b1-4)GlcNAc(b1-4)GlcNAc
# Outline: as §1
# [10] = target: GlcNAc(b1-4)[GlcNAc(b1-6)]GalNAc
# Outline: as §1
# [11] = target: GlcNAc(b1-6)Gal(b1-4)GlcNAc
# Outline: as §1
# [12] = target: GlcNAc(b1-6)GalNAc
# Outline: as §1
# [13] = target: GlcNAc6S(b1-3)Gal(b1-4)GlcNAc
# Outline: as §1
# [14] = target: Kdn(a2-3)Gal(b1-3)GalNAc
# Outline: as §1
# [15] = target: Kdn(a2-3)Gal(b1-3)GlcNAc
# Outline: as §1
# [16] = target: Kdn(a2-3)Gal(b1-4)Glc
# Outline: as §1
# [17] = target: Kdn(a2-3)Gal(b1-4)GlcNAc
# Outline: as §1
# [18] = target: Kdn(a2-3)Gal(b1-4)[Fuc(a1-3)]GlcNAc
# Outline: as §1
# [19] = target: Kdn(a2-6)Gal(b1-4)GlcNAc
# Outline: as §1
# [20] = target: Man(a1-2)Man(a1-2)Man(a1-3)Man
# Outline: as §1
# [21] = target: Man(a1-2)Man(a1-2)Man(a1-6)[Man(a1-3)]Man
# Outline: as §1
# [22] = target: Man(a1-2)Man(a1-3)Man
# Outline: as §1
# [23] = target: Man(a1-2)Man(a1-3)[Man(a1-2)Man(a1-6)]Man
# Outline: as §1
binder,measurement,setting,value
"MPA (Maclura pomifera), P18674 (protein) GVTFDDGAYTGIREINFEYNSETAIGGLRVTYDLNGMPFVAEDHKSFITGFKPVKISLEFPSEYIVEVSGYVGKVEGYTVIRSLTFKTNKQTYGPYGVTNGTPFSLPIENGLIVGFKGSIGYWLDYFSIYLSL",glycan array binding signal (z-score),[1],-0.191
same,glycan array binding signal (z-score),[2],-0.275
same,glycan array binding signal (z-score),[3],-0.217
same,glycan array binding signal (z-score),[4],-0.085
same,glycan array binding signal (z-score),[5],-0.239
same,glycan array binding signal (z-score),[6],-0.211
same,glycan array binding signal (z-score),[7],-0.086
same,glycan array binding signal (z-score),[8],-0.014
same,glycan array binding signal (z-score),[9],-0.082
same,glycan array binding signal (z-score),[10],-0.208
same,glycan array binding signal (z-score),[11],-0.1
same,glycan array binding signal (z-score),[12],-0.107
same,glycan array binding signal (z-score),[13],-0.128
same,glycan array binding signal (z-score),[14],-0.095
same,glycan array binding signal (z-score),[15],-0.278
same,glycan array binding signal (z-score),[16],-0.128
same,glycan array binding signal (z-score),[17],-0.14
same,glycan array binding signal (z-score),[18],-0.14
same,glycan array binding signal (z-score),[19],-0.069
same,glycan array binding signal (z-score),[20],-0.231
same,glycan array binding signal (z-score),[21],-0.161
same,glycan array binding signal (z-score),[22],-0.247
same,glycan array binding signal (z-score),[23],-0.239
